Experimental findings from PMC4207660, “Identification and Characterization of Hundreds of Potent and Selective Inhibitors of Trypanosoma brucei Growth from a Kinase-Targeted Library Screening Campaign” (PLoS Neglected Tropical Diseases, 2014) are described below.

Series [1] concerns T. brucei brucei parasites (Lister 427 strain). Put plainly: Dose response growth inhibition assay (resazurin, 72 h). The format is cell-based. The conditions noted are these: Trypanosoma brucei; T. b. brucei growth inhibition; read-out: Tbb pEC50 (converted). Here is the method:
Greiner sterile black clear bottom 384-well assay plates were pre-dispensing with 200 nL of compound in each well, from master plates at 1 mM (100% DMSO) containing selection from the GSK compound collection. Controls of 0% response (control 1, 200 nL of 100%DMSO) and 100% response (control 2, 200 nL of 1 mM pentamidine) were included in each assay plate in columns 6 and 18, respectively. Plates containing 200 nL of 100% DMSO were included randomly in the assay, to assess quality through all process. […] After this period, 10 µL of 200 µM resazurin solution in prewarmed HMI-9 were added to each well, and plates were allowed to incubate 2 hours more prior fluorescence reading in a Wallac EnVision Multilabel Plate Reader (Perkin-Elmer). Raw fluorescent data from the Envision plate reader were uploaded into GSK HTS database (ActivityBase). Activity of each well was normalized as a percentage of inhibition per-plate basis using the following equation: [drawing 1]
For dose-response experiments, serial compound dilutions of selected hits from the primary campaign were plotted against compound concentration. Dose response master plates were prepared by 3-fold dilutions (starting with 10 mM DMSO stock solutions), providing 11 concentrations. From these master plates, 200 nL per well was stamped in final assay plates, including the same controls describe in the primary single shot assay. […]
(Alamar Blue is a resazurin reagent that responds to reducing activity.)

The nature of series [2]: CLND kinetic solubility assay. The conditions noted are these: phosphate buffered saline, pH 7.4, aqueous buffer, kinetic from dmso stock; Measured; read-out: Aq Sol. The format is physicochemical. The protocol: 5 µL of 10 mM DMSO stock solution was diluted to 100 µL with pH 7.4 phosphate buffered saline, equilibrated for 1 hour at room temperature, filtered through Millipore MultiscreenHTS-PCF filter plates (MSSL BPC). The filtrate was quantified by suitably calibrated flow injection Chemi-Luminescent Nitrogen Detection.

For series [3], the target named is T1, Human Serum Albumin (HSA) (Homo sapiens, UniProt P02768).
T1 construct: purchased Chiral Technologies, France
Put plainly: Protein binding assay (HPLC stationary phase), HSA. The format is in vitro ADME. The conditions noted are these: Measured. The protocol:
Chemically bonded Human Serum Albumin (HSA) and Alpha-1-acidglycoprotein HPLC stationary phases (Chiral Technologies, France) were used for measuring compounds' binding to plasma proteins, applying linear gradient elution up to 30% iso-propanol. The run time was 6 min, including the re-equilibration of the stationary phases with the 50 mM pH7.4 ammonium acetate buffer. The obtained gradient retention times were standardised using a calibration set of mixtures as described in the references. The average standard error of the assay depends on the binding strength and kinetics of the compounds.

Series [4] can be described thus: ChromlogD assay. Here is the method:
The Chromatographic Hydrophobicity Index (CHI)[22] values were measured using reversed phase HPLC column (Luna C18 (2), Phenomenex, UK) with a fast acetonitrile gradient at starting mobile phase of pH = 7.4. CHI values are derived directly from the gradient retention times by using a calibration line obtained for standard compounds. The CHI value approximates to the volume % organic concentration when the compound elutes. […] The average error of the assay is ±3 CHI unit or ±0.25 ChromlogD.

In the case of `Nc1nc(Nc2cccc(S(N)(=O)=O)c2)nc2c1cnn2C1CCC1` [NEU-0001107], the EC50 in series [1] is 398 nM. For the same molecule, the solubility kinetic at 1 h in series [2] is ≥ 460 µM. This molecule also returned an HSA % binding in series [3] of 92.96%.
On to `Nc1cc(-c2ccc3ncnc(N4CCOCC4)c3c2)cnc1N` [NEU-0001111], for which the solubility kinetic at 1 h in series [2] is ≥ 540 µM. The molecule also showed a PFI in series [4] of 5.37. This molecule also yielded an HSA % binding in series [3] of 82.4%.
